The other results are listed elsewhere or left out. At the low end of the ranking, values are background and their order means little.

For this assay, the target named is T1, GST-Rok (full length) (UniProt O34857).
T1 sequence: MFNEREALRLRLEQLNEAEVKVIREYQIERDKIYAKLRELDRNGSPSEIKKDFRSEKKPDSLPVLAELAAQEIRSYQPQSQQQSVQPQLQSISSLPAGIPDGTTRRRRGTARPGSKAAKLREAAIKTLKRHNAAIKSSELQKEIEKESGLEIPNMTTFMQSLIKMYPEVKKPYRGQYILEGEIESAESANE
The experiment in a line: protein binding microarray.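 Note: rank score from −0.5 (least bound) to 0.5 (best bound).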 As to conditions: Rok is a gene silencer of Bacillus subtilis; high values mean tight binding; most listed sequences are background and not binding sites; double strand, one strand shown.
In the case of ACGGGGAG, the binding signal was -0.286 E-score.

In the case of GAGCCCGA, the binding signal was -0.287 E-score. Next, CAGTGTCA: -0.0698 E-score; CGGAGATC: -0.127 E-score. Turning to GGAGCGTA, the binding signal was -0.198 E-score. Next, TCGGTTAA: 0.186 E-score; AAATGTCA: 0.0409 E-score. Next, CAGAGAGA: -0.196 E-score; CTATACCA: 0.258 E-score. Under TAGCAGGA stands -0.0921 E-score.

Take GACGTTAA: the binding signal was -0.0985 E-score. Next, GATGACCC: -0.239 E-score; CTTTTTGA: -0.251 E-score; GTTTGTTA: 0.102 E-score. Under CTGGTAAA stands 0.251 E-score; under GGGTTCTA, -0.15 E-score. Next, CGACTTGC: -0.131 E-score. For AACTAGGG, the binding signal was -0.00258 E-score.

Sequence CCCGTTCG showed a binding signal of -0.227 E-score. Next, ACTGCGCT: -0.136 E-score; CTGACTGC: -0.191 E-score. Under CACGACGC stands -0.178 E-score; under AGCCGGCC, -0.256 E-score. Next, GTAAGGAC: -0.0554 E-score.

Consider AACAGAGA, for which the binding signal is -0.136 E-score.

Turning to GCAAGGCA, the binding signal was -0.205 E-score. Take AGACCGAT: the binding signal is -0.0525 E-score.

Regarding AACCCGAA, the binding signal is -0.173 E-score. Under CATCGTTC stands -0.0505 E-score; under ACTAGCCG, 0.114 E-score; under ACGGTTAG, -0.0112 E-score.

AGCACCGA showed a binding signal of -0.0625 E-score. As for CAAGCTAA, the binding signal is -0.00235 E-score. As to AGAACCTG, the binding signal was -0.0781 E-score. Next, CGGCGTGA: -0.25 E-score; GGTTAGAA: 0.0354 E-score. AAGGTGGT came in with a binding signal of -0.141 E-score. Under CAGCGAAC stands -0.101 E-score; under AAACGGGA, -0.162 E-score; under ACGCAAGA, 0.0403 E-score. Consider GTCGGAGA, for which the binding signal was -0.31 E-score. Next, CTAATTCC: 0.131 E-score; CCTGGTGC: -0.218 E-score; AGGCACCG: -0.419 E-score.

In turn, CGGAGAAG displayed a binding signal of -0.274 E-score. Next, CCAAGCGA: -0.224 E-score; ACTATGAG: 0.0614 E-score; CTAGTCCA: 0.161 E-score. Next, TAGTCACA: 0.157 E-score; AATTGGCT: -0.0243 E-score; CACCGCCA: -0.265 E-score. Next, GCGTTCAA: -0.0683 E-score; CTGCGCCC: -0.143 E-score. CGAGGACA displayed a binding signal of -0.202 E-score.

AACTGATC showed a binding signal of 0.0349 E-score. Next, ACTCTTAG: 0.0979 E-score; CGCCTCAG: -0.351 E-score; GGGAATCA: -0.172 E-score. Next, CAGTGGGG: -0.332 E-score. Under CCTTTGCA stands -0.12 E-score; under CATCCTAG, 0.00966 E-score; under ATAGTGAC, 0.0366 E-score.

For the sequence TAATCGTA, the binding signal turned out to be 0.165 E-score.

Regarding CCATACCA, the binding signal was determined as 0.0774 E-score. The sequence AACACATC returned a binding signal of -0.108 E-score.

CTATTCAC showed a binding signal of -0.0178 E-score.

On to GTGGGGTA, for which the binding signal is -0.311 E-score. Next, CTTGGCGC: -0.281 E-score; ATATCGAT: 0.316 E-score. Under GAATTCTC stands -0.0203 E-score. In the case of CTTCGTGC, the binding signal stood at 0.0588 E-score. Next, AGTTGGCG: -0.0309 E-score; CAAGTCGA: -0.176 E-score. Under CGTCGAAA stands -0.0316 E-score; under AGCGGAGC, -0.0591 E-score. Under CGGCGACA stands -0.319 E-score. AGGCACTA gave a binding signal of -0.106 E-score. Under CAGAATCG stands -0.0487 E-score. Next, GCGCCCGA: -0.449 E-score. Under ACAAGCAC stands -0.138 E-score; under GTTTAGCA, -0.0552 E-score; under AGCTTGAG, -0.248 E-score. For CCAGATCG, the binding signal is -0.18 E-score. Regarding CTGGTGTA, the binding signal was -0.0749 E-score. Next, CGCCGGCA: -0.323 E-score; AAAAAACT: 0.107 E-score; TATTTCCA: 0.141 E-score. Next, GATACCTA: 0.34 E-score; GGGCTAAA: -0.0834 E-score. Under AAATCTGA stands 0.0348 E-score; under AACGCCGA, -0.224 E-score; under AGAGGGCA, -0.24 E-score.

GGTCTGGA: the binding signal is -0.0664 E-score. Next, GCTCATCA: 0.00342 E-score.

In the case of TCGCTAGA, the binding signal came to 0.0746 E-score. The sequence AACGCTGG gave a binding signal of -0.158 E-score. Under GAGCTAGC stands -0.0118 E-score; under AGGGAGCA, -0.18 E-score; under CGAGCTTC, -0.206 E-score. Next, GAACCCGA: -0.162 E-score; ATAGACAG: 0.00316 E-score. Next, GACATCTC: -0.194 E-score; CAGGTTAC: 0.0518 E-score; GTCCTACA: 0.0992 E-score. AAGGTACA had a binding signal of 0.0623 E-score.

In the case of GTCCGATA, the binding signal was -0.0216 E-score. Next, GCGCTAGA: 0.131 E-score; ATCGTGGG: -0.0882 E-score. The sequence ACAGTGAA yielded a binding signal of 0.109 E-score. In turn, AAACACAG yielded a binding signal of 0.0603 E-score. Next, GTCCCCTA: -0.324 E-score. On to AGGACGTG, for which the binding signal is -0.000597 E-score. Under ATGGTATG stands 0.0823 E-score; under CTTCCACA, 0.0321 E-score; under CGGGGGCA, -0.398 E-score.

Turning to ATTGCACA, the binding signal is 0.0502 E-score. The sequence ACCATCAA yielded a binding signal of -0.18 E-score. CACGCTAA returned a binding signal of 0.0793 E-score. Next, CCGAATAA: 0.118 E-score; AAATAACA: 0.202 E-score. Next, CCTCAGTC: -0.396 E-score; AGACGCTC: -0.102 E-score; CACCTAGA: 0.0454 E-score.

The sequence ACGATTCC registered a binding signal of 0.0729 E-score. Next, AAGCGCTA: 0.147 E-score. Under ATACTGGC stands 0.0319 E-score.

Turning to GACCTCGA, the binding signal was -0.0759 E-score. Under AACTAAAT stands 0.362 E-score; under ATGGAGCA, -0.185 E-score; under CGGCTCGA, -0.0686 E-score.

On to ATAGACTG, for which the binding signal turned out to be 0.0799 E-score. In turn, GGCCCCCC came in with a binding signal of -0.455 E-score.

On to ACTTCGAA, for which the binding signal amounted to 0.0934 E-score. Under ACACGACT stands 0.00806 E-score; under CATAGATG, 0.203 E-score. Under AATCGGGA stands 0.0322 E-score; under GTTTACAA, 0.174 E-score.

In turn, AAACGGCA displayed a binding signal of -0.0848 E-score. Next, CGTGTTGC: 0.00225 E-score; CCCGAGTA: -0.211 E-score. ACCGCGTC showed a binding signal of -0.0941 E-score. Next, CCTCAGCG: -0.0631 E-score; GAGGTCCC: -0.335 E-score. Under GGCCTTAC stands -0.147 E-score; under GCGCCACA, -0.251 E-score.

For CTTTAGGA, the binding signal is -0.0742 E-score.

With ATGGCAAC, the binding signal is -0.194 E-score. Under AGTAGCGA stands 0.181 E-score; under CTGCTGAC, -0.217 E-score. Next, AATACCGC: 0.251 E-score.

AGTAGTGG gave a binding signal of 0.203 E-score. Take ACCTGTAT: the binding signal amounted to 0.117 E-score. Turning to GAAATCGC, the binding signal came to 0.00351 E-score. Next, CTGCCGTC: -0.38 E-score. CGCCGTGA showed a binding signal of -0.062 E-score. Under CTTGAAGA stands -0.175 E-score. Next, CGTCAAAA: -0.00138 E-score. Next, CACGACAC: -0.146 E-score.

For the sequence ATATTAGA, the binding signal was found to be 0.24 E-score. Turning to AAAGTTGG, the binding signal stood at 0.032 E-score.

In the case of CTGATGTC, the binding signal was 0.0198 E-score. Next, AATATGAG: -0.0602 E-score; AGATACTG: 0.113 E-score. Next, AACGCTAC: 0.171 E-score; AAAGGAAT: 0.0124 E-score. Take TCTACGCA: the binding signal is -0.00311 E-score. Under GGAGATCC stands -0.242 E-score; under CTAATAAA, 0.171 E-score; under GAGCATAC, -0.128 E-score. Under AGAAGCGG stands -0.201 E-score. Next, CTGTGGAC: -0.156 E-score; GCCTACAC: 0.00486 E-score.

These data come from PMC6212790.
